Measurements published in PubChem BioAssay AID463173 (ICCB-Longwood Screening Facility, Harvard Medical School, 2010).
About 4,300 (8.3%) of roughly 52,000 compounds were called active. Cut-off read from the data, not from the text of the source: active = survival mostly below about 52% (no sharp cut-off); inactive = mostly above about 56%. The list shows a part of the results.

These compounds were tested on DeltatarO mutant (assay: growth inhibition of S. aureus wild type versus tarO mutant, primary screen, teichoic acid synthesis inhibitors, RN4220, OD600 (AID 463173)). Settings: OD600, 18 h, active compounds read low, screened at 18.75 µg/mL (by protocol).

Structure (SMILES) | survival
CCCNC(=O)c1c(C)nn(-c2cccc(C)c2)c1-n1cccc1 | inactive: 60%
CCC1=NN(C(=O)Cc2ccccc2)C(O)(c2ccccc2)C1 (configuration not stated) | inactive: 77%
CCN(CC)CCNC(=O)c1nn(-c2ccc(OC)c(Cl)c2)c(=O)c2c1c1ccccc1n2C | inactive: 109%
O=C(NCCc1ccccc1)C1(c2cccs2)CCOCC1 | inactive: 77%
CN(C)S(=O)(=O)n1cc(/C=C(\NC(=O)c2ccccc2Cl)C(=O)NCCCn2ccnc2)c2ccccc21 | inactive: 89%
O=C(NCCc1ccccc1Cl)c1ccc2c(c1)nc1n2CCOC1 | inactive: 74%
O=C(CSc1nc2c(c(=O)[nH]1)CN(Cc1ccc(F)cc1)CC2)Nc1ccccc1Cl | inactive: 80%
CCOc1ccccc1CNCCNC(=O)c1nonc1N | inactive: 134%
C=CCN1C(=O)CSC1=Nc1ccc(C(=O)O)cc1 | inactive: 63%
COc1cc(OC)c(NC(=O)CC(c2cccs2)N2Cc3ccccc3C2=O)cc1Cl (configuration not stated) | inactive: 92%
Cc1ccc2ncc3c(-c4ccc(F)cc4)nn(-c4cccc(F)c4)c3c2c1 | inactive: 93%
Cc1ccc2c(c1)c1c(c(=O)n(-c3ccccc3C)c(=O)n1CC(=O)N1CCCC1)n2C | inactive: 78%
Cc1ccccc1Nc1sc(C(=O)c2ccccc2)c(N)c1C(=O)NCc1ccc(Cl)cc1 | inactive: 100%
CCc1ccccc1NC(=O)CSCc1cnn(-c2ccccc2)c1-n1cccc1 | inactive: 57%
Cc1ccc(Cn2cc(C(=O)c3ccc(F)cc3)c(=O)c3cc4c(cc32)OCCO4)cc1 | inactive: 67%
COc1cc(C(=O)OCc2cc(=O)n3nc(C4CCCCC4)sc3n2)cc(OC)c1OC | inactive: 119%
CCOC(=O)c1cc(C)n(CC2CCC(C(=O)Nc3ccc(C(C)=O)cc3)CC2)c1C (configuration not stated) | inactive: 102%
CCc1cccc(NC(=O)c2cn3c4c(ccc(Cl)c4c2=O)OC(C)C3)c1 (configuration not stated) | inactive: 73%
COc1ccc(N2CCN(C(=O)c3cccc(-n4c(C)nc5cccnc54)c3)CC2)cc1 | inactive: 95%
CCn1nnc2cc(C(=O)Nc3ccc(Cl)cc3C)ccc21 | inactive: 119%
CCc1cccc(-n2c(=O)c3cccnc3n2CC(=O)NCc2ccccc2)c1 | inactive: 71%
O=C(NCCC1=CCCCC1)c1ccc2c(c1)N(Cc1ccccc1F)C(=O)c1ccccc1S2=O (configuration not stated) | inactive: 112%
Cc1ccc2nc(N3CCN(c4ccccc4)CC3)c3nnnn3c2c1 | inactive: 88%

Structure (SMILES) | survival
CCCNS(=O)(=O)c1ccc2nc(NC(=O)c3ccc(F)cc3)sc2c1 | inactive: 93%
COC(=O)c1ccc(NC(=O)CSc2nc(C)cc(C)c2C(=O)Nc2ccccc2)cc1 | inactive: 44%
Cc1nc(-c2ccc(S(=O)(=O)Nc3ccc(C#N)cc3)cc2)co1 | inactive: 113%
COc1cc(NS(=O)(=O)c2cnc(N)nc2)cc(OC)c1 | inactive: 76%
CCOc1ccc(/C=C/C(=O)Nc2sc3c(c2C(=O)OC)C(C(=O)OC)CC3)cc1 (configuration not stated) | inactive: 56%
COc1ccc(C(=O)Nc2nccs2)c(OC)c1 | inactive: 79%
O=c1[nH]c(=O)n(-c2ccccc2)c(O)c1C=Nc1ccc(S(=O)(=O)N2CCCCC2)cc1 | inactive: 52%
Cc1ccc(-n2ncc(C(=O)NCCc3ccccc3)c2C2CCN(C(=O)OC(C)(C)C)CC2)c(C)c1 | inactive: 91%
O=C(CSc1ccccc1)Nc1ccc(NC(=O)c2ccco2)cc1 | inactive: 98%
COc1cccc(NC(=O)Cn2c(=O)cc(C)c3c(C)nn(-c4cccc(F)c4)c32)c1 | inactive: 67%
CC1CCCCN1C(=O)Cn1c(=O)n(-c2ccc(Cl)cc2)c(=O)c2c3c(sc21)CCC3 (configuration not stated) | inactive: 139%
COc1ccc(CNC(=O)c2ccc(NC(=O)N3CC4CCCN4c4ccccc43)cc2)cc1 (configuration not stated) | inactive: 67%
CCN1CCN(C(c2ccc(OC)cc2)c2c(O)cc(C)n(Cc3ccco3)c2=O)CC1 (configuration not stated) | inactive: 74%
CCN(CC)c1nc2c(-c3cccc(Br)c3)nnn2c2ccccc12 | inactive: 72%
OCCNCC(O)CN1c2ccccc2Sc2ccccc21 (configuration not stated) | inactive: 92%
COc1cccc(NC(=O)C2CCN(S(=O)(=O)c3cccc4nonc34)CC2)c1 | inactive: 108%
COc1cc(C2CC(=O)Nc3c2c(C)nn3-c2nc(C)cc(C)n2)cc(OC)c1O (configuration not stated) | inactive: 78%
O=C(Cc1ccccc1)Nc1sc2c(c1C(=O)Nc1ccccc1)CCCCC2 | inactive: 50%
COc1cccc(-c2nn3c(=O)cc(CN4CCN(S(=O)(=O)c5ccc(C)cc5)CC4)nc3s2)c1 | inactive: 80%
Cc1ccc(CSc2nnc(-n3c(=O)c(C#N)cc4c(=O)n5cccc(C)c5nc43)s2)cc1 | inactive: 101%
COc1ccc(-c2nc3ccccc3n3c(-c4cccc(C)c4)c4c(=O)n(C)c(=O)n(C)c4c23)cc1 | inactive: 71%
Cc1ccc(C(=O)C2CCN(C(=O)Cc3ccccc3)CC2)cc1 | inactive: 86%
CSc1nc(=O)c2c(n1C)NC(=O)CC2c1ccccc1OC(C)C (configuration not stated) | inactive: 46%

Structure (SMILES) | survival
Cc1ccc(Nc2c(-c3ccc(N(C)C)cc3)nc3nc[nH]n23)cc1 | inactive: 67%
COCCCn1c(=N)c(C(=O)NCC2CCCO2)cc2c(=O)n3cc(C)ccc3nc21 (configuration not stated) | inactive: 70%
CC(=O)c1ccc(S(=O)(=O)Nc2ccc(-c3ccc(N4CCCCCC4)nn3)cc2)cc1 | inactive: 75%
Cc1ccc2c(=O)cc(C(=O)Nc3ccc(S(=O)(=O)N4CCC(C)CC4)cc3)oc2c1C | inactive: 60%
Fc1ccc(CN(Cc2ccco2)Cc2nnnn2CCc2ccccc2)cc1 | inactive: 93%
Cc1ccc2nc(NS(C)(=O)=O)sc2c1 | inactive: 78%
Nc1c(C(=O)NCc2ccc(Cl)cc2Cl)nnn1Cc1ccc(Br)cc1 | active: 45%
CC(C)CCNC(=O)C1CC(=O)N(c2ccccc2)C1 (configuration not stated) | inactive: 67%
COc1ccc(OCC(=O)Nc2cc(-c3ccccc3F)nn2-c2ccccc2)cc1 | inactive: 92%
CCc1ccc(CNC(=O)c2cc3cc(S(=O)(=O)N4CCCCC4)ccc3n2C)cc1 | inactive: 60%
CCCn1ccc2c(OCC(=O)Nc3cc(C)ccc3C)cccc2c1=O | inactive: 99%
Cc1ccc(S(=O)(=O)NCC2CCC(C(=O)NCc3ccc(F)cc3)CC2)cc1 (configuration not stated) | inactive: 72%
CSc1ccc(CNC(=O)C2CCCN(S(=O)(=O)N(C)c3ccc(F)cc3)C2)cc1 (configuration not stated) | inactive: 73%
COc1cccc(-c2cn3c(n2)sc2cc(C(=O)NCCCc4ccccc4)ccc23)c1 | inactive: 54%
Cc1nn(Cc2ccc(Cl)c(Cl)c2)c(C)c1NC(=O)c1noc2c1CCc1ccccc1-2 | active: 46%
CCc1ccc2c(c1)c(=O)c(S(=O)(=O)c1ccc(Cl)cc1)cn2CC | inactive: 78%
COc1cccc(CNCCSc2nnnn2C)c1OCc1ccccc1 | inactive: 79%
COc1ccccc1CC(=O)Nc1cccc(C)n1 | inactive: 97%
COC(=O)CC1Oc2ccccc2-n2cc(-c3ccc(C)cc3)nc21 (configuration not stated) | inactive: 64%
CCSc1nsc(NC(=O)Nc2cccc(F)c2)n1 | active: 1%
COc1ccc(/C=N/NC(=O)c2ccc3c(c2)NC(=O)C(C)(C)O3)cc1OC | inactive: 78%
COCCNC(=O)CSc1nc(-c2cc(OC)c(OC)c(OC)c2)[nH]c1-c1ccc(Cl)cc1 | inactive: 91%
CCOCCCn1c(SCC(=O)OCC)nc2c(sc3ccccc32)c1=O | inactive: 124%

Structure (SMILES) | survival
CC1CCN(c2ncccc2C(=O)NC2CCCCC2)CC1 | inactive: 76%
Cc1ccc(S(=O)(=O)N(CCO)Cc2cc3cc(C)c(C)cc3[nH]c2=O)cc1 | inactive: 72%
Cc1cccc(C(C)C)c1NC(=O)C1CCCN1S(=O)(=O)c1cccc2nsnc12 (configuration not stated) | inactive: 65%
Cc1ccc(C(=O)CSc2nc(-c3ccccc3)nc3c2CCCC3)c(C)c1 | inactive: 47%
CCC1CN(C(=O)N2CCC(C(=O)NCCc3ccccc3Cl)CC2)c2cc(C)ccc2O1 (configuration not stated) | inactive: 74%
C=CCn1cc(F)c(=O)n(CC=C)c1=O | inactive: 75%
COc1cc(NC(=O)CN2c3ccccc3S(=O)(=O)c3ccccc32)cc(OC)c1 | inactive: 69%
CCN(CC)S(=O)(=O)Cc1ccccc1 | inactive: 77%
Cc1nc2ccccc2n1C(=O)CCC(=O)O | inactive: 84%
Cc1ccc(Nc2nnc(-c3ccc(C)c(S(=O)(=O)N4CCN(C)CC4)c3)c3ccccc23)cc1 | inactive: 80%
CCOc1c(C)cc(-c2ncccc2O)cc1C | inactive: 72%
CCc1ccc(NC(=O)CN(c2ccc(C)cc2)S(=O)(=O)c2cccs2)cc1 | inactive: 69%
COc1ccc(-c2cc(C)no2)cc1S(=O)(=O)N1CCc2ccccc21 | inactive: 67%
Cn1c(=O)c2c(SCC(=O)Nc3ccccc3C(F)(F)F)nc(C3CCCC3)nc2n(C)c1=O | inactive: 87%
Cc1ccc(Cl)cc1NC(=O)Nc1nnc(N(C)Cc2ccccc2)s1 | inactive: 66%
Cc1ccc(CN(C(=O)c2ccccc2)c2ccccn2)o1 | inactive: 103%
O=C(O)CCCCn1c(SCC(=O)Nc2ccccc2C(F)(F)F)nc2ccsc2c1=O | inactive: 100%
Cc1oc2c(c1C(=O)NCc1cc(C(=O)O)co1)CCCC2 | inactive: 83%
CCc1ccc(C(=O)CC2(O)C(=O)N(C(C)C)c3ccccc32)cc1 (configuration not stated) | inactive: 79%
CCCCn1cc(S(=O)(=O)c2ccc(OC)cc2)c(=O)c2cc(CC)ccc21 | inactive: 82%
O=C(Cc1ccc(F)cc1)Nc1nncs1 | inactive: 99%
O=S(=O)(c1ccccc1)c1nnn2c1nc(NC1CCCCC1)c1sccc12 | inactive: 71%
Cc1ccc(OCCCCn2nnc3sc4c(c3c2=O)CCCC4)cc1 | active: 48%
